Measured values published in article PMC4336329 (PLoS ONE, 2015).
The campaign covered roughly 310,000 compounds. About 14,000 (4.5%) showed an effect of 50% or more. Effects have a minus sign here. The list shows a part of the results.

Molecular target: human ether-à-go-go-related gene (hERG) potassium channel (human, UniProt Q12809)
Assay: primary screen, population patch clamp on CHO cells stably expressing hERG
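Also: peak tail current of the secondary pulse compared with the same well before compound.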

human ether-à-go-go-related gene (hERG) potassium channel, sequence (Q12809 whole entry, looked up): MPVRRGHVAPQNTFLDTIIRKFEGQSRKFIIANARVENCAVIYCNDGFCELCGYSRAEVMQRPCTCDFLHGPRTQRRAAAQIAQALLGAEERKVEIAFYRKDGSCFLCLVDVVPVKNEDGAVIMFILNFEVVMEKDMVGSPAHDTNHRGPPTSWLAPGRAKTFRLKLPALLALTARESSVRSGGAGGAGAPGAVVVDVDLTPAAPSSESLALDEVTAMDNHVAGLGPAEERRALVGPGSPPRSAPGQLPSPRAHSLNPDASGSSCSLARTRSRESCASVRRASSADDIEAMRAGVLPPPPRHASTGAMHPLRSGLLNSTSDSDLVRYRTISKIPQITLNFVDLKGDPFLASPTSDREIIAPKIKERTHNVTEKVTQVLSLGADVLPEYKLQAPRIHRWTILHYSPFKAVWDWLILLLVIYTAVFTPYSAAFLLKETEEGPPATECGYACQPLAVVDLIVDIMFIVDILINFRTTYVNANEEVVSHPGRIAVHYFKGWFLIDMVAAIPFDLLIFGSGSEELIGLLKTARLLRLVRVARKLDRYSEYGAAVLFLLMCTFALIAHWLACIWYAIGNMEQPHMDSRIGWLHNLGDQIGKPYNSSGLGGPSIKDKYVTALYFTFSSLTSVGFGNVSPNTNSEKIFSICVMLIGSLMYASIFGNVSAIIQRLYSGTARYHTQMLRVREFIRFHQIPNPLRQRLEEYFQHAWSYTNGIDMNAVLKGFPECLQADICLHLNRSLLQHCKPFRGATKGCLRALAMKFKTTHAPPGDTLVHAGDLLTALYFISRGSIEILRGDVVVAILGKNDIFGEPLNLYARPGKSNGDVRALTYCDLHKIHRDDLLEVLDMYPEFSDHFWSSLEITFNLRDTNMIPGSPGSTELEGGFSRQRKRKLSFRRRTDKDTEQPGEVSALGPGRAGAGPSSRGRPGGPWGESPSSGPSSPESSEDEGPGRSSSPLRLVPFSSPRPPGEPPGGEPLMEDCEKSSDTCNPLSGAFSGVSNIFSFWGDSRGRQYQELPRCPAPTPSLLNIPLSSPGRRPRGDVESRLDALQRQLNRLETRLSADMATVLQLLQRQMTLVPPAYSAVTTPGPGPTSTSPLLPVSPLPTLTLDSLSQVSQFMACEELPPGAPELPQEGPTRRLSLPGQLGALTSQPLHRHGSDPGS

Compound	hERG current change (%, negative = inhibition) at 10uM
c1ccc(-c2nn3c(C4CCCCC4)nnc3s2)cc1	-14.2%
Br.O=S(=O)(c1ccc(-c2csc(Nc3ccc(Br)cc3)n2)cc1)N1CCCC1	10.2%
Cc1ccc(CNC(=O)c2cn(C3CCCCC3)c(=O)c3c2c2ccccc2n3C)o1	-2.58%
COC(=O)/C=c1/s/c(=C(\C#N)C(=O)NCc2ccco2)n(-c2ccc(C)cc2)c1=O	10.2%
CC(C)(C)n1ncc2c(=O)n(CC(=O)N3CCc4ccccc43)cnc21	-4.27%
O=C(O)c1ccccc1S(=O)(=O)NCC(O)COc1ccc(Br)cc1 (stereo not drawn)	7.48%
COc1cccc(-c2csc(N3CCN(C(=S)Nc4cccc(C)c4)CC3)n2)c1	29%
Cc1ccc(-n2nc3c(=O)n(CC(=O)NC4CCCCCC4)nc(C)c3c2C)cc1	5.97%
N#Cc1c(NC(=O)C2CC2)sc2c1CCCCC2	-13.2%
Cc1ccccc1NC(=S)NCCO	11.6%
O=C(Cc1cccs1)N/N=C/c1ccccc1	3.83%
CCN1CCN(C(=O)CCc2nnc(CCCCc3ccccc3)o2)[C@@H](C)C1=O	16.5%
CCCN1C2CCCC1CC(NC(=O)NC1CCCCC1)C2 (stereo not drawn)	-12.4%
CCN(Cc1ccncc1)C(=O)c1ccccc1NS(=O)(=O)c1ccc(Br)cc1	-3.86%
COc1ccccc1C1CCN(Cc2ccc(Cl)c(Cl)c2)CC1	12.3%
O=C(NCc1ccccc1F)C12CC3CC(CC(C3)C1)C2	1.48%
Cc1ccc(OC(C)C(=O)Nc2ccccc2C(=O)N2CCOCC2)cc1 (stereo not drawn)	5.55%
CC(C)C1C(C#N)=C(N)Oc2n[nH]c(-c3ccc4ccccc4c3)c21 (stereo not drawn)	2.61%
c1ccc(-c2nnc(OCC3CCCO3)c3ccccc23)cc1 (stereo not drawn)	-10.8%
Cc1ccc(NC(=O)N2CCCC2)cc1Cl	5.43%
Cc1ccc2nc(N(CCN(C)C)C(=O)/C=C/c3cccs3)sc2c1.Cl	-40.3%
NC(=O)Cn1cc(C(=O)c2ccccc2F)c2ccccc21	25.1%
O=C(COC(=O)c1c(Cl)cccc1Cl)NCC1CCCO1 (stereo not drawn)	0.579%

Compound	hERG current change (%, negative = inhibition) at 10uM
O=C(NCC(=O)N1CCN(Cc2ccccc2)CC1)c1ccc(Cl)cc1	-27.9%
CCCCOc1ccccc1C(=O)N(Cc1ccc(C)o1)C1CCS(=O)(=O)C1 (stereo not drawn)	-33.4%
CCn1c(CSCc2ccc(C)cc2)nnc1SCC(=O)NCc1ccccc1	-42.1%
N#CCSc1nnc2c(Cl)cc(Cl)cn12	15.5%
O=C(C[n+]1ccc(-c2nnc3n2CCC3)cc1)c1ccc(Cl)cc1.[Br-]	1%
CSCCC(NC(=O)c1ccc(Cl)cc1Cl)C(=O)N1CC(C)OC(C)C1 (stereo not drawn)	-23.7%
Cc1ccc(Cn2ccc(C3CC3)n2)cc1	18.2%
COc1ccc(-n2cccc2/C=C2\C(=N)N3N=C(c4ccco4)SC3=NC2=O)cc1	16.5%
COc1ccc(-c2csc(-c3ccccc3)n2)c(OC)c1	29.1%
CC(C)(C)OC(=O)N1CCC2(CC1)Oc1ccc(F)cc1C(=O)C21CC(c2ccccc2)=NO1 (stereo not drawn)	11.1%
CCn1ncc(Br)c1C(=O)Nc1ncc(C)s1	7.17%
CCCNC(=O)C/C(C)=N/NC(=O)COc1ccc(C)cc1Br	-20.9%
Cc1ccc(NS(=O)(=O)c2c(C)[nH]c(=O)[nH]c2=O)cc1F	-37.9%
NNC(=O)C12CC3CC(C1)CC(n1ncnn1)(C3)C2	14.2%
O=C(O)CCCC(=O)Nc1ccc(S(=O)(=O)Nc2nccs2)cc1	3.77%
Cc1[nH]c2ccccc2c1C(=O)COC(=O)c1cccc(S(=O)(=O)N2CCCCC2)c1	6.18%
COC(=O)c1ccccc1S(=O)c1snnc1C (stereo not drawn)	19.5%
CNC(=O)C1CCN(C(=O)c2ccc(-c3ccccc3)cc2)CC1	1.38%
O=[N+]([O-])c1cc2c(cc1/C=N/Nc1nc(N3CCCC3)nc(N3CCCC3)n1)OCO2	-0.497%
COc1cnc(-c2ccccn2)nc1Oc1c(C)cccc1C	6.27%
COc1ccc(/C(N)=N/OC(=O)CSc2ccc(C)cc2)cc1	7.13%
CCOc1ccc(C(=O)Nc2nc(C)c(C(=O)OC)s2)cc1	16.4%
